Results reported in PubChem BioAssay AID2675 (National Center for Advancing Translational Sciences (NCATS), 2010).
Hit rate of the full screen: of about 280,000 compounds, about 100 (0.036%) were called active. Inconclusive results, whose numbers are uncertain, are shown with a selection of clear calls. Calls come from the whole dose curve; as a rule, active = well fitted inhibition curve with a large enough effect in the signal ratio, with a control signal flat (not every such curve was filed as active); inconclusive = small, poorly fitted or top-dose-only effect, or effect the other way, or a change in a side signal; inactive = no such curve, though single readings can be large or run the other way; the % refers to the signal ratio. A potency beside an inconclusive call is a rough fit, not a confirmed value. “Side channel” marks fits to a control or component signal instead of the main read-out.
% is set by controls: 0 for no effect and ±100 for the full control effect; potency is the fitted concentration of half-maximal effect; tags give direction and shape of the fitted curve or compound fluorescence and quenching.

What follows are compounds tested against Muscleblind-like protein 1 (Homo sapiens) (UniProt Q9NR56) (assay: qHTS Assay for Inhibitors of MBNL1-poly(CUG) RNA binding). Details: TR-FRET MBNL1-His/biotin-(CUG)12 binding, 665/545 ratio; activity change, negative = inhibition: at 57.5 µM (top of the series).
Sequence of UniProt Q9NR56 (Q9NR56 whole entry, looked up): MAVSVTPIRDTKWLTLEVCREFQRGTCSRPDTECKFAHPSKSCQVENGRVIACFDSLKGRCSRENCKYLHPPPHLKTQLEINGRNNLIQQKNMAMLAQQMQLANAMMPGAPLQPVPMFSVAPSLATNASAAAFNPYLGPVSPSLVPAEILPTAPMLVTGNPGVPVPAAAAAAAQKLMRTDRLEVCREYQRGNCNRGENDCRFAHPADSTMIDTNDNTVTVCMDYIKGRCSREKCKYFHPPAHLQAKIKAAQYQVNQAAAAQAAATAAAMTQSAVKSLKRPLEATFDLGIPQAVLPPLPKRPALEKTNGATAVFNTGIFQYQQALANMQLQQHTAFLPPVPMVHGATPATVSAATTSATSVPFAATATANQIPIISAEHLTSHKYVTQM
Summary of the method: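 Inhibition of protein-RNA binding appears as loss of TR-FRET between terbium anti-His antibody on MBNL1-His and streptavidin-XL665 on biotin-(CUG)12. Activity is normalized to buffer-only and uninhibited-complex controls.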
For `CCCCC1=CC2=CC(=O)C(C)(OC(=O)CC)C(=O)C2=CN1Cc1ccc(OC)cc1` (configuration not stated), the Potency was inconclusive: 12.6 µM [quencher, side channel, partial curve].
With `CSc1nccc(-c2c(-c3ccc(Cl)cc3)noc2C)n1` the Potency was “inactive”.
`O=S(=O)(NCc1ccccc1)c1cccc2nonc12` was tested, and the Potency was inconclusive: 17.8 µM [quencher, side channel, partial curve].
`Cc1cc(-c2nnc(SCC(=O)Nc3nc(-c4ccc(Cl)cc4)cs3)o2)no1` was tested, and the Potency was “inactive”.
`COC(=O)c1sccc1NC(=O)c1ccc(C)cc1` was tested, and the Potency was inconclusive: 35.5 µM [fluorescent, single point].
`COc1ccc(C2SCCN2C(=O)c2ccc([N+](=O)[O-])cc2)cc1` (configuration not stated) was tested, and the Potency was inconclusive: 28.2 µM [quencher, side channel, partial curve].
`C=CCOc1ccccc1CNc1ccc2c(c1)OCCO2` was tested, and the Potency was “inactive”.
`O=C(CCNS(=O)(=O)c1cccc2nsnc12)NC1CCCc2ccccc21` (configuration not stated) was tested, and the Potency was inconclusive: 6.31 µM [quencher, side channel, partial curve].
In the case of `Cc1cc(N2C(=O)C(O)=C(C(=O)c3ccco3)C2c2ccc([N+](=O)[O-])cc2)no1` (configuration not stated), the Potency was inconclusive: 28.2 µM [quencher, partial curve].
For `Clc1cccc(CN2CCc3c([nH]c4ccccc34)C2)c1`, the Potency was inconclusive: 28.2 µM [quencher, side channel, single point].
With `Cc1ccc(-n2c(N)c(C(N)=O)sc2=S)c(C)c1` the Potency was inconclusive: 28.2 µM [quencher, side channel, partial curve].
`Cc1cc(/C=C2/NC(=O)NC2=O)c(C)n1-c1ccncc1` was tested, and the Potency was inconclusive: 31.6 µM [quencher, side channel, single point].
In the case of `COc1ccc(CCNC(=O)c2cc3c(C)nccc3[nH]c2=O)cc1OC`, the Potency was inconclusive: 39.8 µM [fluorescent, side channel, single point].
`O=C(c1ccc(COCC(F)(F)F)o1)N1CCCCCC1` was tested, and the Potency was “inactive”.
With `O=C(O)c1ccc(N2C(=O)c3ccc(C(=O)c4cccc([N+](=O)[O-])c4)cc3C2=O)cc1` the Potency was inconclusive: 39.8 µM [quencher, side channel, single point].
For `Clc1cc2nc3ccccn3c2cc1Cl`, the Potency was “inactive”.
In the case of `CCCNC(=O)NC(=O)COC(=O)c1cccc(NS(=O)(=O)c2ccc(F)c(F)c2)c1`, the Potency was inconclusive: 8.91 µM [fluorescent, side channel, partial curve, poor fit].
For `COC(=O)c1ccc(CN2CCC(Oc3cccc(C(=O)N4CCOCC4)c3)CC2)cc1`, the Potency was inconclusive: 2.51 µM [quencher, side channel, full curve].
In the case of `COc1ccc(C(=O)NNC(=S)NC(=O)c2ccccc2[N+](=O)[O-])cc1`, the Potency was inconclusive: 28.2 µM [quencher, side channel, single point].
In the case of `O=C(NCCCN1CCCC1=O)C1CCCO1` (configuration not stated), the Potency was “inactive”.
For `COc1ccc(CC(=O)N/N=C/c2ccc(Cl)s2)cc1OC`, the Potency was inconclusive: 25.1 µM [quencher, side channel, single point].
In the case of `COCCNC(=O)/C(C#N)=C/c1cn(CC(=O)NCc2ccco2)c2ccccc12`, the Potency was inconclusive: 3.55 µM [quencher, side channel, full curve, poor fit].
`Cc1cc(C)cc(-n2nnnc2SCC(=O)Nc2nc(-c3ccc(F)cc3)cs2)c1` was tested, and the Potency was “inactive”.
With `O=C(/C=C/c1cccs1)N1CCc2ccccc21` the Potency was inconclusive: 12.6 µM [quencher, side channel, partial curve, poor fit].
For `CC1CN(c2ccc([N+](=O)[O-])cc2Cl)CCN1S(C)(=O)=O` (configuration not stated), the Potency was inconclusive: 12.6 µM [quencher, side channel, partial curve].
With `Cc1ccc(NC(=O)CSCC(=O)N2CCOCC2)cc1` the Potency was inconclusive: 6.31 µM [quencher, side channel, single point].
In the case of `O=C(O)c1cc(Nc2nc(N3CCOCC3)nc(N3CCOCC3)n2)ccc1Cl`, the Potency was inconclusive: 8.91 µM [quencher, side channel, single point].
For `CCn1c(C)nc2cc(C(=O)N/N=C/c3ccccc3)ccc21`, the Potency was “inactive”.
With `O=C(N1CCOCC1)N1CCN(S(=O)(=O)c2cccc([N+](=O)[O-])c2)CC1` the Potency was inconclusive: 15.8 µM [quencher, side channel, partial curve].
For `CCOC(=O)c1c(N)sc2c1CCC(CC)C2` (configuration not stated), the Potency was “inactive”.
`Cc1cccc(C)c1NC(=O)COC(=O)c1cccc2c1C(=O)c1ccccc1C2=O` was tested, and the Potency was inconclusive: 1.78 µM [quencher, side channel, full curve, poor fit].
For `O=C1c2ccccc2NC(c2ccco2)N1O` (configuration not stated), the Potency was “inactive”.
With `Cc1ccc2nc(-c3ccc(N4C(=O)CC(N5CCN(CCO)CC5)C4=O)cc3)sc2c1` (configuration not stated) the Potency was inconclusive: 31.6 µM [quencher, side channel, partial curve].
For `CCc1ccc(NC(=O)C(C)Oc2nnc(-c3cccs3)c(-c3cccs3)n2)cc1` (configuration not stated), the Potency was inconclusive: 22.4 µM [quencher, side channel, single point].
In the case of `COc1ccccc1OC(=O)c1ccc2nsnc2c1`, the Potency was inconclusive: 14.1 µM [quencher, side channel, partial curve].
In the case of `c1coc(-c2nc3nc4ccccc4nc3n2CC2CCCO2)c1` (configuration not stated), the Potency was inconclusive: 20 µM [quencher, side channel, partial curve].
With `COc1ccc(NC(=S)N2CCN(c3ccc([N+](=O)[O-])cc3)CC2)cc1OC` the Potency was inconclusive: 4.47 µM [quencher, side channel, full curve].
With `O=C(Nc1ccc(N2CCN(C(=O)c3ccccc3)CC2)cc1)c1cc([N+](=O)[O-])ccc1N1CCOCC1` the Potency was inconclusive: 15.8 µM [quencher, side channel, partial curve].
For `O=C1CC(c2ccccc2)n2nc(NC(=O)c3ccccn3)nc2N1` (configuration not stated), the Potency was “inactive”.
In the case of `C/C(=N\NC(=O)c1nc2ccccn2c1C)c1cc2ccccc2o1`, the Potency was inconclusive: 25.1 µM [quencher, single point].
For `O=C(NCCCNc1ccc(C(F)(F)F)cc1[N+](=O)[O-])c1cc(F)c(F)cc1Cl`, the Potency was inconclusive: 22.4 µM [quencher, side channel, partial curve, poor fit].
With `O=C(CSc1nnc(CNC(=O)c2ccccc2F)o1)c1ccccc1` the Potency was inconclusive: 3.16 µM [quencher, side channel, single point].
In the case of `COc1ccc(/C=N/NC(=O)c2cc(-c3ccc(C)cc3C)nc3ccccc23)cc1COC(C)=O`, the Potency was “inactive”.
In the case of `CCCNC(=O)Cn1cnc([N+](=O)[O-])n1`, the activity change, negative = inhibition was inconclusive: 25% [phenotype inactive].
With `N#C/C(=C/c1ccc(OCc2ccccc2)cc1)C(=O)NC1CCCCC1` the Potency was inconclusive: 3.16 µM [quencher, side channel, partial curve].
For `CN1C=CC2=C(C#N)C(N)C(C#N)(C#N)C(c3ccccc3)C2C1` (configuration not stated), the Potency was inconclusive: 20 µM [quencher, side channel, partial curve].
In the case of `CN(C(=O)/C=C/c1cnc2ccccc2c1)C1CCCCC1`, the Potency was inconclusive: 10 µM [quencher, side channel, partial curve].
With `O=[N+]([O-])c1nn(-c2ccc3c(c2)OCCO3)n(O)c1=NCCC1=CCCCC1` the Potency was inconclusive: 11.2 µM [quencher, partial curve].
With `O=[N+]([O-])c1ccc(S(=O)(=O)N/N=C/c2cccs2)cc1` the Potency was inconclusive: 15.8 µM [quencher, side channel, partial curve].
In the case of `O=C1N/C(=C\c2ccc(O)cc2)C(O)=C1C=NCc1ccccc1`, the Potency was inconclusive: 7.94 µM [quencher, side channel, full curve].
With `CCOC(=O)c1c(NC(=O)c2noc(C)c2[N+](=O)[O-])sc(C(C)=O)c1C` the Potency was inconclusive: 20 µM [quencher, side channel, partial curve].
`Cc1ccc(S(=O)(=O)CCNC(=O)Cc2ccccc2)cc1` was tested, and the Potency was “inactive”.
For `CCOC(=O)c1c(C)nc2c(c(SC)nn2-c2ccccc2)c1N`, the Potency was “inactive”.
In the case of `O=C(CSc1nnc(-c2ccccc2F)n1C1CC1)NC(=O)c1cccc([N+](=O)[O-])c1`, the Potency was inconclusive: 14.1 µM [quencher, side channel, partial curve].
For `CC1(C)COC2(OC1)C(=O)Nc1ccccc12`, the Potency was inconclusive: 22.4 µM [quencher, side channel, single point].
For `Cc1nc(-c2ccccc2)sc1C(=O)/C=C/N(C)C`, the Potency was inconclusive: 35.5 µM [quencher, side channel, single point].
In the case of `COc1ccc(C(=O)OCC(=O)NC(=O)CCSc2ccccc2)cc1`, the Potency was inconclusive: 0.316 µM [fluorescent, side channel, full curve].
`Cc1cc(C)nc(/N=C(\N)N2CCCCC2)n1` was tested, and the Potency was inconclusive: 22.4 µM [quencher, side channel, partial curve].
With `O=c1nc2ccccc2c2n1CC(CN1CCN(c3ccccc3F)CC1)N2` (configuration not stated) the Potency was “inactive”.
For `N/C(Cc1ccc([N+](=O)[O-])cc1)=N\OC(=O)C(c1ccccc1)c1ccccc1`, the Potency was “inactive”.
In the case of `O=C1c2ccccc2C(=O)C1c1ccnc2ccccc12`, the Potency was inconclusive: 10 µM [quencher, side channel, partial curve, poor fit].
`CN(CCO)S(=O)(=O)c1ccc2c(c1)C(=O)c1cc(S(=O)(=O)N(C)CCO)ccc1-2` was tested, and the Potency was inconclusive: 10 µM [quencher, side channel, partial curve].
